Assay results as given in PubChem BioAssay AID488969 (Vanderbilt High Throughput Screening Facility, 2010).
Whole data set: some 110,000 compounds, median “z-score” near -0.1, cut for the highest 2% near 2. The list shows a part of the results. Calls of active or inactive are those of the source.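 Rule for the calls: active = z-score in the third read window above 3 or below -3; inactive = the rest.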

Each molecule was assayed against Metabotropic glutamate receptor 8 (Rattus norvegicus) (UniProt P70579) (assay: rat mGluR8 modulators via GIRK flux, primary screen, cell-based, thallium flux, HTS (AID 488969)). Conditions: HEK293 rat mGluR8, GIRK (G protein-gated inwardly rectifying potassium channel) thallium flux, FluoZin2; at 10 µM; stronger effect = higher value; submaximal glutamate (EC20) added with thallium.
UniProt P70579, sequence (P70579 whole entry, looked up): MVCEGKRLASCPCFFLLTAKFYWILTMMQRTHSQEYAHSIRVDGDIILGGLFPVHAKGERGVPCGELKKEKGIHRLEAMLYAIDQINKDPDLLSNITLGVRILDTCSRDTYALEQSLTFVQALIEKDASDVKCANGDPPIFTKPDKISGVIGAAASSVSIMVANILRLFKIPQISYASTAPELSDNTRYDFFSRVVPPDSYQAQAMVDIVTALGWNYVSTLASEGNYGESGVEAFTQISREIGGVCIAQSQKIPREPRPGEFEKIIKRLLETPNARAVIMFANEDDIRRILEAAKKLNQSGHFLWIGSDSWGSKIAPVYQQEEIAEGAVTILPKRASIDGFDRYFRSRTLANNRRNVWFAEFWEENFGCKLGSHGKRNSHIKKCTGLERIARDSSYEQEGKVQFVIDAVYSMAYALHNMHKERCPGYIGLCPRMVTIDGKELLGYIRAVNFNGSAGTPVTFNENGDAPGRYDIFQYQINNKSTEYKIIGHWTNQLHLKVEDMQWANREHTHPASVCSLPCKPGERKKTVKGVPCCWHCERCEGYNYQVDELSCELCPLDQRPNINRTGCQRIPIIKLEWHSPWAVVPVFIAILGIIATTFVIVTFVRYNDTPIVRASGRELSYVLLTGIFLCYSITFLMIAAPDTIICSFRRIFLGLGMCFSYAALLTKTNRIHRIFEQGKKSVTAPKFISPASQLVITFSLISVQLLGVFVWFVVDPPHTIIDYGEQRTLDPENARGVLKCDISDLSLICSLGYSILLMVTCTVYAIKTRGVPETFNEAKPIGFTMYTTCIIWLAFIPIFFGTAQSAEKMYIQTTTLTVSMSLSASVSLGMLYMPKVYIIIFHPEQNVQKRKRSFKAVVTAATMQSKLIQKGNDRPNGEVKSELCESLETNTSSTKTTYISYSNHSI

Going from CCOC(=O)Oc1ccc2c(=O)c(Oc3cc(C)cc(C)c3)coc2c1 to COC(=O)C1=C(CSCc2ccco2)NC(=O)NC1c1cc(C)ccc1C (stereo unspecified), the z-score falls from -0.109 to -0.361.

Going from Cc1ccc(C)c(NC(=O)C2CC(O)CN2C(=O)OC(C)(C)C)c1 (stereo unspecified) to C=C(C)c1cccc(C(C)(C)NC(=O)N2CCCC(C)C2)c1 (stereo unspecified), the z-score falls from -0.0711 to -0.261.

Going from O=S1(=O)N=C2CCCN2C(c2ccc(F)cc2)N1 (stereo unspecified) to CC1(C)C(=O)C2(CCCCC2)C(=O)OC1c1ccc(O)cc1 (stereo unspecified), the z-score rises from 0.0641 to 0.812.

Compared with Cc1ccc(C(c2nnnn2C2CCCCC2)N(C)C2CCCCC2)cc1 (stereo unspecified), CN(C1CCCCC1)S(=O)(=O)c1ccc(NC(=O)c2ccco2)cc1 is lower in z-score: -0.198 for the first, -1.31 for the second.

Going from Clc1ccccc1OCc1nnc(-c2ccccc2Br)o1 to N#Cc1cc(-c2ccccc2)nnc1Oc1ccccc1Cl, the z-score rises from -0.451 to 0.0526.

First: COc1ccc(C(CC(=O)Nc2ccc(Cl)cc2F)NC(=O)C(F)(F)F)cc1 (stereo unspecified)
Second: COc1ccc(-c2nnc(SC(C)C(=O)Nc3ccc4c(c3)OCCO4)o2)cc1 (stereo unspecified)
The z-score of the first is lower: -0.164 for the first, 1.65 for the second.

Going from COc1ccc(-c2nc(C#N)c(N3CCN(c4ccccc4)CC3)o2)cc1 to COc1ccc(-c2nc(C#N)c(NCCCN3CCOCC3)o2)cc1, the z-score falls from 0.645 to 0.105.

Compared with O=C(c1cnn(-c2ccccc2)c1)c1ccccc1O, Oc1ccccc1-c1cc(-c2ccccc2Cl)[nH]n1 is higher in z-score: -0.163 for the first, -0.137 for the second.

Going from O=C(CNC(=O)c1ccc(N2C(=O)c3ccccc3C2=O)cc1)OCC(=O)c1cccc2ccccc12 to Cc1ccc(NC(=O)Nc2ccccc2C(=O)NCc2ccccc2)cc1, the z-score rises from -0.565 to -0.199.

First: COc1ccc(CNC(=O)C2CCN(S(=O)(=O)c3cc(OC)ccc3OC)CC2)cc1
Second: COc1ccc(OC)c(S(=O)(=O)Nc2ccccc2C)c1
The z-score of the first is higher: -0.313 for the first, -0.584 for the second.

Compared with CCn1c(COc2cccc3ccccc23)nnc1SCC(N)=O, CCCCn1c(SCC(=O)Nc2nccs2)nc2ccccc2c1=O is higher in z-score: 0.457 for the first, 0.559 for the second.

Compared with CCOCCCNC(=O)C(c1ccc(C)cc1)N1CCOCC1 (stereo unspecified), COc1ccc(N(C)C(=O)CCC(=O)Nc2ccc3nc(N4CCOCC4)cc(C)c3c2)c(OC)c1 is lower in z-score: -0.197 for the first, -0.423 for the second.

Compared with Cn1c(CNc2ccccn2)c(C#N)c2ccccc21, CN(C)C(=O)CSc1nc2ccccc2n1Cc1ccccc1 is lower in z-score: -0.123 for the first, -0.129 for the second.

Going from CCC(CC)C(=O)Nc1cccc(C(=O)NCc2ccco2)c1 to Cc1nc2nc(SCC(=O)NCc3ccco3)nn2c(C)c1Cc1c(F)cccc1Cl, the z-score rises from -0.972 to -0.482.

First: Cc1cccc(NC(=O)c2nc(-c3ccccc3)n(-c3ccccc3)n2)c1C
Second: c1ccc(-c2ccccc2-c2nc(-c3cccnc3)no2)cc1
The z-score of the first is higher: 0.835 for the first, -0.645 for the second.

Compared with Cc1nn(CC(=O)N(C)Cc2ccc(F)cc2)c(C)c1[N+](=O)[O-], Cc1ccc(CN(C#N)c2nc(C)cc(C)n2)cc1 is lower in z-score: -0.458 for the first, -0.467 for the second.

Compared with COC(=O)c1cc(C(=O)c2ccc(Cl)cc2Cl)cn1C, N#Cc1cc(C(=O)c2cc(Br)ccc2O)cn(C2CCCCC2)c1=O is higher in z-score: -0.292 for the first, 0.172 for the second.

Going from CC(C)(C)NCc1cc(Cl)ccc1OCc1cccs1 to COc1ccc(Cl)cc1N1CCN(CCNC(=O)Nc2ccccc2C)CC1, the z-score rises from 0.678 to 1.4.

First: COc1ccc(CCN(Cc2nc(-c3ccccc3)no2)Cc2nc(-c3ccccc3)no2)cc1OC
Second: COc1cc(-c2nn3c(-c4cccc(C)c4)nnc3s2)cc(OC)c1OC
The z-score of the first is higher: 0.106 for the first, -1.05 for the second.

First: O=C(c1ccc(N2CCNCC2)cc1)c1cccnc1
Second: Cc1cccc(Nc2nc(N)nc(CN3CCN(c4ccccc4)CC3)n2)c1
The z-score of the first is higher: -0.0635 for the first, -0.569 for the second.

Compared with CN(C)CCNC(=O)c1ccc(Cl)s1, CC(C)NC(=O)c1ccc(COCC(F)(F)C(F)F)cc1 is higher in z-score: -0.326 for the first, 0.168 for the second.

First: O=C(Cc1ccc2c(c1)OCCO2)N1CCN(S(=O)(=O)c2cccc(C(F)(F)F)c2)CC1
Second: c1cn2cc(-c3ccc4c(c3)OCO4)nc2s1
The z-score of the first is lower: -0.325 for the first, 0.0768 for the second.

First: C=CCSc1nnc(-c2ccccc2N=Cc2c(C)[nH]n(-c3ccccc3)c2=O)c(=O)[nH]1
Second: O=C1c2ccccc2C(=O)N1CCCCON1C(=O)c2ccccc2C1=O
The z-score of the first is lower: -1.38 for the first, 0.763 for the second.

Compared with Cc1cc(N2CCCC2)ccc1/C=N/n1cnnc1, Fc1cc2nccnc2cc1N1CCSCC1 is higher in z-score: 0.0308 for the first, 1.89 for the second.

Going from O=C(NCCCCc1ccccc1)C1CC(c2ccc([N+](=O)[O-])cc2)=NO1 (stereo unspecified) to Cc1cccc(N2C(=O)CC(N(C(=O)c3ccco3)c3cccc(C)c3)C2=O)c1 (stereo unspecified), the z-score falls from -0.194 to -1.08.

Compared with C=CCn1c(O)c(N=NC(=O)c2ccccc2NS(=O)(=O)c2cccs2)c2ccccc21, COC(=O)CN1C(=O)C(O)(CC(=O)c2ccc(C)o2)c2ccccc21 (stereo unspecified) is lower in z-score: 0.211 for the first, -0.302 for the second.

Going from CCN(CC)S(=O)(=O)c1ccc2[nH]cc(C(=O)NCCC3=CCCCC3)c(=O)c2c1 to CC(C)C(NC(=O)c1ccc(F)cc1)C(=O)OCC(=O)N1CC(=O)Nc2ccccc21 (stereo unspecified), the z-score rises from -0.495 to 0.0927.

Molecule Cc1nn(-c2nc3ccccc3s2)c(N)c1Sc1ccc(F)cc1 has a z-score of -1.37.

CCOC(=O)c1ccc(CNCc2ccc(Br)cc2)cc1 was tested, and the z-score was active: -3.34.
